Structures are written as SMILES. In all, about 46,000 compounds went through this assay and about 60 (0.1%) were called active. Not shown: some 3% with an inconclusive outcome. Calls come from the whole dose curve; as a rule, active = well fitted inhibition curve with a large enough effect; inconclusive = small, poorly fitted or top-dose-only effect; inactive = no such curve, though single readings can be large or run the other way. This is one part of the list.

A short description of this experiment: Primary qHTS assay for Inhibitors of ovarian cancer metastasis using an organotypic tumor microenvironment (TME) model.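 For activity change, negative = inhibition: plate controls were DMSO wells for no effect and tomatine positive control wells for full effect.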 Note: nearly all actives have a fitted effect of over 65% in size. As to conditions: SKOV3ip1-GFP adhesion/invasion on 3D omental model, fluorescence; series mostly up to 45.8 µM; activity change, negative = inhibition: at the top concentration. The essentials: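 Primary human omental fibroblast/mesothelial 3D culture pre-formed 48 h. SKOV3ip1-GFP cells added with compounds (0.36-46 umol/L), incubated 2 h RT/16 h 37 C, fixed; GFP cells quantified at 488/509 nm.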
A general note: qHTS replaces the single test concentration by a dilution series.
On to `Cc1ccc(Nc2c(C(C)C)c(C)c(C#N)c3nc4ccccc4n23)cc1`, for which the “activity change, negative = inhibition” value is inactive: -18%.
As for `CCCNC(=O)CN1C(=O)CSc2ccc(S(=O)(=O)N3CCC(C)CC3)cc21`, the “activity change, negative = inhibition” value is inactive: -6.97%.
With `COc1ccc2c(c1)CCc1c(C(=O)Nc3c(C)nn(Cc4ccccc4)c3C)noc1-2`, the “activity change, negative = inhibition” value was inactive: -8.88%.
Turning to `Cc1ccccc1-c1noc(-c2ccc(NCc3ccco3)c([N+](=O)[O-])c2)n1`, the outcome was inactive.
As for `CCOc1ccc(NC(=O)c2cc(S(=O)(=O)NC3CCCCCC3)ccc2F)cc1`, the “activity change, negative = inhibition” value was inactive: -6.6%.
As for `CCN(CC)C(=O)C1CCN(S(=O)(=O)c2c(C)noc2/C=C/c2cccc(OC)c2)CC1`, the molecule was classed as inactive.
As for `CCC(C)NC(=O)CCCc1nnc2n(CC(C)C)c(=O)c3sccc3n12` (stereo unspecified), the result was inactive.
As to `COCCCNC(=O)c1nn(-c2ccc(C)cc2)nc1CO`, the “activity change, negative = inhibition” value is inactive: -4.2%.
`Cc1ccc(S(=O)(=O)C(CNC(=O)C(=O)NCCc2ccccc2)c2cccs2)cc1` (stereo unspecified): the result was inactive.
As for `O=c1oc2ccccc2c(N2CCN(c3ccccc3F)CC2)c1CN1CCCC1`, the “activity change, negative = inhibition” value was inactive: 3.17%.
Same read-out and setting: with `CCOc1ccc(C2CC(=O)c3c([nH]c(C(=O)OCC4CCCCC4)c3C)C2)cc1` (stereo unspecified) the figure was inactive: -10.8%; with `CCOc1ccc(-n2c(=O)c3c(C)c(C)sc3n(CC(=O)NCCc3ccccc3)c2=O)cc1`, inactive: 0.111%.
On to `Cc1ccc(NC(=O)/C=C\C(=O)N(c2ccc(C(C)C)cc2)C(C(=O)NCc2ccco2)c2ccc(F)cc2)cc1` (stereo unspecified), for which the “activity change, negative = inhibition” value was inactive: 6.25%.
As to `CCOc1ccccc1NC(=O)CSc1nccn1-c1cccc(C)c1`, the “activity change, negative = inhibition” value is inactive: -1.55%.
On the same count and under the same terms, with `COc1ccc2c(Sc3ccc(C)cc3)c(C(=O)NC(C)C)[nH]c2c1` the figure was inactive: -11.4%.
On to `Cc1ccc(NC(=O)CC2Nc3ccccc3NC2=O)cc1C` (stereo unspecified), for which the outcome was inactive.
For the molecule `O=C(CN1C(=O)CSc2ccc(S(=O)(=O)N3CCCC3)cc21)Nc1cccc(Cl)c1`, the molecule was called inactive.
On to `CCCc1cc(=O)oc2cc(C)c3c(-c4ccccc4)coc3c12`, for which the “activity change, negative = inhibition” value was inactive: 14.5%.
For the molecule `COc1cccc(NC(=O)C(Cc2ccccc2)NS(=O)(=O)c2ccc3c(c2)c(=O)n(C)c(=O)n3C)c1` (stereo unspecified), the “activity change, negative = inhibition” value is inactive: 33.9%.
Turning to `Cc1cccc(CNC(=O)Cn2ccc3cc(S(=O)(=O)N4CCCCCC4)ccc32)c1`, the “activity change, negative = inhibition” value was inactive: -8.57%.
On the same count and under the same terms, with `COc1ccc(Cl)cc1NC(=O)c1c(NCc2cccnc2)sc2c1CCC(C)C2` (stereo unspecified) the figure was inactive: -15.8%; with `CC1CCCCN1CCCNC(=O)CN1C(=O)c2cccnc2Oc2ccccc21` (stereo unspecified), inactive: -8.7%; with `COc1ccccc1NC(=O)C1=C(C)Nc2c(C(=O)Nc3cccc(C)c3)cnn2C1c1ccccc1Cl` (stereo unspecified), inactive: -5.57%.
`Cc1ccc(Cl)cc1NC(=O)CCCn1c(=O)c2cccn2c2cccnc21`: the “activity change, negative = inhibition” value is inactive: -1.15%.
With `COc1cc(NC(=O)CCn2nc(C)c(S(=O)(=O)N3CCCCC3)c2C)cc(OC)c1OC`, the “activity change, negative = inhibition” value was inactive: 10.5%.
For `COc1ccc(CCNC(=O)c2ccc(Cn3c(=O)c4ccccc4n(CC(=O)C(C)(C)C)c3=O)cc2)cc1OC`, the “activity change, negative = inhibition” value was inactive: 40.1%.
On to `Cc1ccccc1C(=O)N(Cc1sccc1C)C1CCS(=O)(=O)C1` (stereo unspecified), for which the “activity change, negative = inhibition” value is inactive: 3.95%.
Turning to `CCCCN(CC)C(=O)C1CCCN(c2ncnc3onc(C)c23)C1` (stereo unspecified), the “activity change, negative = inhibition” value was inactive: 14.7%.
Take `CCN1CCN(C(c2ccc(SC)cc2)c2c(O)cc(C)n(CCOC)c2=O)CC1` (stereo unspecified): the “activity change, negative = inhibition” value was inactive: 13.7%.
For the molecule `COCCCNC(=O)c1ccc(Cn2c(=O)c3ccccc3n(Cc3c(C)cc(C)cc3C)c2=O)cc1`, the molecule was called inactive.
On the same count and under the same terms, with `COc1ccc(-c2nc3n(n2)C(c2ccc(OC)c(OC)c2)C(C(=O)Nc2cccnc2)=C(C)N3)cc1` (stereo unspecified) the entry was “inactive”.
On to `C[C@@]12C[C@@]3(O)O[C@@H](O1)[C@]1(COC(=O)c4ccccc4)[C@@H]3C[C@@]12O[C@@H]1O[C@H](CO)[C@@H](O)[C@H](O)[C@@H]1O`, for which the “activity change, negative = inhibition” value was inactive: 14.6%.
As to `COc1cc(C(=O)NCC(c2ccc(Cl)cc2)N2CCOCC2)cc(OC)c1OC` (stereo unspecified), the “activity change, negative = inhibition” value was inactive: -3.07%.
Consider `CCOC(=O)c1ccc(CN(Cc2ccc(Br)cc2)S(=O)(=O)c2cccc(Cl)c2C)cc1`, for which the “activity change, negative = inhibition” value was inactive: -17.6%.
For `O=c1cc(-c2ccc(F)cc2)nc(SCc2nc(-c3ccc(Cl)cc3)no2)[nH]1`, the “activity change, negative = inhibition” value is inactive: 25.4%.
Still for that read-out and setting: with `CCOC(=O)c1c(C)[nH]c(C)c1S(=O)(=O)NCC(=O)NCc1cccc(C)c1` the figure was inactive: 1.97%.
The same measure, in the same setting: with `O=C(Cn1c(=O)nc(-c2ccccc2)c2ccccc21)NCc1ccccc1Cl` the figure was inactive: 2.1%.
As for `CCS(=O)(=O)c1ncc(N(Cc2ccco2)Cc2ccccc2F)c(C(=O)Nc2cccc(Cl)c2)n1`, the “activity change, negative = inhibition” value was inactive: 0.643%.
Turning to `Cc1ccc(N2CCN(C(=O)c3cn(C)c4ccc(S(=O)(=O)N(C)C)cc4c3=O)CC2C)cc1` (stereo unspecified), the “activity change, negative = inhibition” value is inactive: -3.03%.
On to `CCc1ccc(C2C(C(=O)Nc3ccccc3C)=C(C)Nc3nc(SCc4cccc(OC)c4)nn32)cc1` (stereo unspecified), for which the molecule was called inactive.
In the case of `CCOC(=O)CC(NC(=O)Cn1nnc(-c2ccccc2F)n1)c1ccccc1Cl` (stereo unspecified), the molecule was classed as inactive.
Turning to `CO[C@H]1C[C@@H]2CC[C@@H](C)[C@@](O)(O2)C(=O)C(=O)N2CCCC[C@@H]2C(=O)O[C@H]([C@H](C)C[C@@H]2CC[C@H](OCCO)[C@H](OC)C2)CC(=O)[C@H](C)C=C(C)[C@@H](O)[C@@H](OC)C(=O)[C@H](C)C[C@H](C)C=CC=CC=C1C`, the “activity change, negative = inhibition” value is inactive: 10.9%.
Consider `CC(C)(Oc1ccc(Br)cc1)C(=O)Nc1cc(-c2nc3ccccc3[nH]2)ccc1Cl`, for which the outcome was inactive.
Regarding `O=C(CN1N=C(c2ccc(Cl)cc2)CCC1=O)NCCc1ccccc1`, the “activity change, negative = inhibition” value is inactive: 3.8%.
As for `COc1ccccc1CNC(=O)CN1N=C(c2ccccc2)CCC1=O`, the molecule was classed as inactive.
Still for that read-out and setting: with `CCOc1ccc(NC(=O)c2oc3ccccc3c2NC(=O)c2ccc(OC)cc2OC)cc1` the entry was “inactive”.
